# Experimental data taken from the supplement of paper PMC11417369.
# ± gives the standard deviation of the averaged measurements. The list shows a part of the results.
# System: PfAP2-EXP AP2 domain (GST-tagged)
# Experiment: gcPBM binding intensity (ln(normalized median fluorescence intensity)); higher = stronger DNA binding
# Procedure, shortened: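 The binding buffer was 1× PBS containing 1% milk, 0.2 mg/ml BSA, 0.5% salmon testes DNA and 0.03% Triton X-100. In it, GST-tagged P. falciparum DNA-binding domains expressed in E. coli were applied for 1 h to an Agilent 4 × 180k array of primer-extended double-stranded 36-bp intergenic genomic probes plus negative controls. Binding intensity, read with Alexa488 anti-GST antibody and a 488 nm scan, is the highest Masliner-normalised natural-log median intensity across replicate spots of either probe orientation.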
row,Sequence,gcPBM binding intensity (ln)
1,ATACATATATATATATGTACACACATTAATAAAAAA [XGTACX_site6874],8.6 ± 0.42
2,TATATTTTAGTTAATGCATGTGTGCATCCATTTAAA [TGCATGCA_site887],8.42 ± 0.17
3,AAAAAAAAAAGACACACACACAAATACAAATGGTAA [CACACA_site6906],8.68 ± 0.37
4,TAAAATTAGGAAATTGCACACAAAAAAAAACATATT [CACACA_site9349],8.69 ± 0.46
5,TTTGTTATATTTAATACACACATATTATAAACCCAT [CACACA_site3716],8.59 ± 0.42
6,ATAAAGCCATACAATACACACATTTTACATGGCTGT [CACACA_site5756],8.59 ± 0.48
7,AGAAGAAAAGAAATATGTACATAAACGTCTGAACTA [XGTACX_site1699],8.86 ± 0.54
8,ATAACAAATATGATAGCATGCTACATATTACAACTT [TGCATGCA_site524],8.86 ± 0.52
9,TGATTAATAGCAGGTAGTACTATAATAATATAAATA [XGTACX_site2776],8.61 ± 0.28
10,GTTCCATATATTACATGTACATATTTTTACATTTAA [XGTACX_site660],9.31 ± 0.37
11,TGACATAAATTTAATACACACACAAAGAAAAAAAAA [CACACA_site9354],8.72 ± 0.45
12,TTTAAAAAAAAAAAAAAAAATTCTACATGTAATTTA [CACACA_negctrl_site1205],7.92 ± 0.38
13,ATATATCACATGAACATTAAAAAAAAAAAAGAGGGG [TGCATGCA_negctrl_site187],8.48 ± 0.38
14,GGAACATATGAACTCACACACATTTTCACTTAAATA [CACACA_site3684],8.52 ± 0.4
15,ATATCACATTCCACGGTACACACTAATAGAAAAATC [CACACA_site9204],8.88 ± 0.53
16,TTTATACAATTAGACACACACAAAAAGTATAAATAT [CACACA_site6637],8.84 ± 0.55
17,AATATTTATAAATTTACACACACACCGGTGAACATA [CACACA_site8579],8.98 ± 0.48
18,TAAAATGATAAATGAATGTGATCATTTTATAAAATA [CACACA_negctrl_site674],8.33 ± 0.42
19,TTTAAACTAGAACAAGTGCAGATATGTATAATAATA,8.6 ± 0.32
20,TTTTATTTTGGAACGTGTACATATAATTATTTATTG [XGTACX_site8094],8.61 ± 0.29
21,ATTTATTTTTATCAAGCATGCATAAAAAATAAATTA [TGCATGCA_site440],8.88 ± 0.39
22,AAGAAAAGATATATATATAAATATATATATATATAT [TGCATGCA_negctrl_site353],9.91 ± 0.27
23,TATTTTTAGAAAATAAAGAAGGAGAATTGAAAATAT [CACACA_negctrl_site361],8.62 ± 0.43
24,AGGTAGTTCTGTATCACACACATATAAATATAAATA [CACACA_site7110],8.48 ± 0.4
